Data from the antibiotic and cytotoxicity screens of Wong et al. (2023).
Some of the results follow.

Assays:
[1] = tested on: HSkMC (human skeletal muscle cells); experiment: cytotoxicity call (relative viability < 0.9); conditions: 10 µM
[2] = tested on: HepG2; experiment: cytotoxicity call (relative viability < 0.9); conditions: 10 µM
[3] = tested on: S. aureus RN4220; experiment: growth inhibition call (relative growth <= 0.2); conditions: 50 µM

Row | SMILES | cytotoxicity call [1] | cytotoxicity call [2] | growth inhibition call [3]
1 | C[C@H](CO)N1C[C@H](C)[C@@H](CN(C)Cc2cccc(C(=O)Nc3ccccc3N)c2)OCc2ccccc2-c2c(n(C)c3ccccc23)C1=O | inactive | inactive | inactive
2 | CCS(=O)(=O)N1C[C@]2(C1)CN([C@H](CO)c1c2c2ccc(cc2n1C)OC)C(=O)c1ccc(cc1)F | inactive | inactive | inactive
3 | C[C@H]1CN([C@@H](C)CO)C(=O)c2cccc(NS(=O)(=O)c3ccccc3)c2O[C@H]1CN(C)C(=O)Nc1cccc2ccccc12 | inactive | inactive | inactive
4 | CC(=O)Nc1c(I)cc(I)c(C(=O)O)c1I | inactive | inactive | inactive
5 | C[C@H](CO)N1C[C@H](C)[C@@H](CN(C)Cc2ccc3c(c2)OCO3)OCCCC[C@H](C)Oc2ccc(NC(=O)C3CCCCC3)cc2C1=O | inactive | inactive | inactive
6 | CN(C)CC(=O)N[C@@H]1CC[C@@H](CCNS(=O)(=O)c2ccccc2)O[C@@H]1CO | inactive | active | inactive
7 | COc1ccc(NC(=O)N(C)C[C@H]2Oc3c(NS(C)(=O)=O)cccc3C(=O)N([C@@H](C)CO)C[C@@H]2C)cc1 | inactive | inactive | inactive
8 | Cc1ccc(S(=O)(=O)NCCOc2nc(N(C)C)nc(N3CCOCC3)n2)cc1 | inactive | inactive | inactive
9 | COc1cccc(CN(C)C[C@H]2OCc3ccccc3-c3c(n(C)c4ccccc34)C(=O)N([C@@H](C)CO)C[C@@H]2C)c1 | inactive | inactive | inactive
10 | COc1ccc(C#Cc2ccc3c(c2)O[C@@H](CN(C)C(=O)CN2CCOCC2)[C@@H](C)CN([C@H](C)CO)S3(=O)=O)cc1 | inactive | inactive | inactive
11 | COc1ccc(NC(=O)N(C)C[C@@H]2Oc3ccc(NS(=O)(=O)c4cn(C)cn4)cc3C(=O)N([C@H](C)CO)C[C@@H]2C)cc1 | inactive | inactive | inactive
12 | CC(C)NC(=O)Nc1ccc2c(c1)CC(=O)N([C@H](C)CO)C[C@@H](C)[C@@H](CN(C)Cc1ccc(Oc3ccccc3)cc1)O2 | active | active | inactive
13 | Cc1ccc(S(=O)(=O)Nc2cccc3c2O[C@@H](CN(C)C(=O)Nc2ccc(C(F)(F)F)cc2)[C@@H](C)CN([C@@H](C)CO)C3=O)cc1 | inactive | inactive | inactive
14 | C[C@H](CO)N1C[C@H](C)[C@@H](CN(C)CC2CCCCC2)OCCCC[C@H](C)Oc2ccc(NS(=O)(=O)c3ccccc3)cc2C1=O | inactive | inactive | inactive
15 | CN1CCN(C(=O)CNS(=O)(=O)c2ccccc2)CC1 | inactive | inactive | inactive
16 | COc1ccc2c3c([nH]c2c1)[C@H](CO)N(C[C@]13CCN(CC1)Cc1ccc(cc1)F)C(=O)Nc1ccc(cc1)F | inactive | active | inactive
17 | OC[C@@H]1Cc2ccccc2CN1 | inactive | inactive | inactive
18 | N=C(N)NCCSC(=N)N | inactive | inactive | inactive
19 | C[C@@H]1CN([C@@H](C)CO)C(=O)c2cc(NS(C)(=O)=O)ccc2O[C@@H](C)CCCCO[C@H]1CN(C)S(=O)(=O)c1cn(C)cn1 | inactive | inactive | inactive
20 | C[C@@H]1CCCCO[C@@H](CN(C)C(=O)c2ccccc2)[C@H](C)CN([C@@H](C)CO)C(=O)c2cc(NC(=O)Nc3ccccc3)ccc2O1 | inactive | inactive | inactive
21 | C[C@H](CO)N1C[C@H](C)[C@H](CN(C)S(=O)(=O)c2ccccc2)Oc2ncc(-c3ccccc3)cc2C1=O | inactive | inactive | inactive
22 | CO[C@@H]1CN(C)C(=O)c2cc(NS(=O)(=O)CC(F)(F)F)ccc2OC[C@H](C)N(Cc2nccs2)C[C@@H]1C | inactive | inactive | inactive
23 | CC(C)=CCCC(C)=CCCC(C)=CCCC(C)=CCCC(C)=CCCC(C)=CCCC(C)=CCCC(C)=CCCC(C)=CCO | inactive | inactive | inactive
24 | C[C@@H]1CN([C@H](C)CO)S(=O)(=O)c2ccc(C#CCN(C)C)cc2O[C@H]1CN(C)Cc1cccnc1 | inactive | inactive | inactive
25 | C[C@H](CO)N1C[C@H](C)[C@H](CN(C)C(=O)Nc2cccc(F)c2)Oc2ncc(C#CCN(C)C)cc2C1=O | inactive | inactive | inactive
26 | COc1ccc(NC(=O)Nc2ccc3c(c2)C(=O)N([C@@H](C)CO)C[C@@H](C)[C@H](CN(C)C(=O)Nc2cccc4ccccc24)OCCCC[C@@H](C)O3)cc1 | inactive | inactive | inactive
